Source: article PMC4336329 (PLoS ONE, 2015)
In all, about 310,000 compounds went through this assay and about 2,200 (0.71%) showed an effect of 50% or more. Effects have a minus sign here. Some of the results follow.

Each molecule was assayed against human ether-à-go-go-related gene (hERG) potassium channel (human, UniProt Q12809) (assay: primary screen, population patch clamp on CHO cells stably expressing hERG).
human ether-à-go-go-related gene (hERG) potassium channel, sequence (Q12809 whole entry, looked up): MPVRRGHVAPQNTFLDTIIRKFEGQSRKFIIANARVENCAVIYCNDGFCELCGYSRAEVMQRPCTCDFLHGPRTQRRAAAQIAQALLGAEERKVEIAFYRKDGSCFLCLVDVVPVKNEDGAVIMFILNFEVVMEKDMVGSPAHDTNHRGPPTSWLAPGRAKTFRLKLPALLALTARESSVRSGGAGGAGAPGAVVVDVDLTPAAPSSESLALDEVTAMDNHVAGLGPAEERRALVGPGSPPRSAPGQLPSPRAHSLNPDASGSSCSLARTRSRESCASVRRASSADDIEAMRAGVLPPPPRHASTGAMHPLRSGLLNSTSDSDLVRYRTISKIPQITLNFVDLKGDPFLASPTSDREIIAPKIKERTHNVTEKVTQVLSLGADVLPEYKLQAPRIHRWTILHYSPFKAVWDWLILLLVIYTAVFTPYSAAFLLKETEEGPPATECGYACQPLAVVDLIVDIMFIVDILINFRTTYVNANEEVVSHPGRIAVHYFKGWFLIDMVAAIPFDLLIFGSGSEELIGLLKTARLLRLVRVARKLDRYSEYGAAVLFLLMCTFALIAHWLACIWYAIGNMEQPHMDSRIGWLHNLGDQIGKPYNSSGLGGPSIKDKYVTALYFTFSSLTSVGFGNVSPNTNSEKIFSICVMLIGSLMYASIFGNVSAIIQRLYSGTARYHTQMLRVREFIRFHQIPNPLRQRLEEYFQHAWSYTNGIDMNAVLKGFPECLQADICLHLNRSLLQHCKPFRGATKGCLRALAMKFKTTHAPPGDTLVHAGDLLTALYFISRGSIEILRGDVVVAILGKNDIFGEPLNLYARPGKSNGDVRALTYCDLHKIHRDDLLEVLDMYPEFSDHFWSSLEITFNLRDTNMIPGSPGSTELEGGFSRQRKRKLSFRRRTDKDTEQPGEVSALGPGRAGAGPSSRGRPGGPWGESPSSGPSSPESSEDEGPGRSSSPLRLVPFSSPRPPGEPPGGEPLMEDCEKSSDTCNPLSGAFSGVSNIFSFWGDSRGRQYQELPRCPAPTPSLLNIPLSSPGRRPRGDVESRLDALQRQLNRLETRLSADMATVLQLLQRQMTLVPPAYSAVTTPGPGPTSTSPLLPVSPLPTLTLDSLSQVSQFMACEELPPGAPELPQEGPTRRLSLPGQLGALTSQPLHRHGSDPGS

Row | SMILES | hERG current change (%, negative = inhibition) at 1uM [%]
1 | O=C(COC(=O)C12CC3CC(CC(O)(C3)C1)C2)Nc1ccc(Cl)cc1F | -1.56
2 | COc1ccccc1CC(NC(C)=O)C(=O)NC1CCN(C(=O)c2ccc([N+](=O)[O-])cc2)CC1 (stereo not shown) | 1.94
3 | CCOC(=O)c1ccc(N2C(=O)CC(N3CCC(C#N)(c4ccccc4)CC3)C2=O)cc1 (stereo not shown) | 2.7
4 | Cc1nc(N2CCOCC2)c2c3c(sc2n1)CCC3 | 1
5 | O=C1NC2(CCCCCC2)C(=O)N1Cc1ccc(Br)cc1 | 11.5
6 | COc1cccc(C(=O)NCCNC(=O)c2ccc(C)nc2)c1 | 11.7
7 | O=S(=O)(c1cccc(-c2n[nH]c(=S)n2C2CCCC2)c1)N1CCOCC1 | 12.8
8 | COC(=O)Cc1[nH]n(-c2nc3ccccc3s2)c(=O)c1C(C)=Nc1ccc(Cl)cc1 | -2.71
9 | CCc1ccc(NC(=O)COn2nnc3ccc(S(=O)(=O)N(C)C)cc32)cc1 | 4.67
10 | CCOc1ccc(C(=S)N2CCOCC2)cc1OCC | -2.13
11 | CC(=O)NNC(=S)NC(=O)c1ccccc1 | 12.2
12 | COC(=O)c1cc(S(=O)(=O)NCc2cccs2)c[nH]1 | 16.2
13 | Cc1ccc(CN2CCN(CC(=O)N=Nc3c(O)[nH]c4ccccc34)CC2)cc1 | -75.3
14 | Cc1cc(Nc2cccc(F)c2)nc(NCc2ccccc2)n1 | 11.6
15 | O=C(N/N=C/c1ccccn1)c1cc(C2CC2)nc2ccccc12 | 12.5
16 | Cn1c(CN2CCCCC2)nc2cc(NS(=O)(=O)c3ccc(Cl)cc3)ccc21 | -9.75
17 | O=C(CN(C(=O)CSc1nc2ccccc2o1)c1cccc(F)c1)NC1CCCCC1 | 10.1
18 | CC(C)(C)c1ccc(C(=O)OCCNC(=O)c2c(Cl)nc3ccccn23)cc1 | 5.24
19 | CCN(Cc1ccccc1)C(=O)CN1C(=O)COc2ccc(S(=O)(=O)N3CCCCCC3)cc21 | 3.59
20 | CCCc1nc(SCc2cccnc2)c2c(=O)n(C)c(=O)n(C)c2n1 | -12.7
21 | CCCCC(=O)OCC(=O)c1cc(C)n(-c2c(C)n(C)n(-c3ccccc3)c2=O)c1C | 11.3
22 | CCOc1ccc2[nH]c(=O)c(CN(Cc3ccco3)C(=O)c3cccc(F)c3)cc2c1 | 8.97

Row | SMILES | hERG current change (%, negative = inhibition) at 1uM [%]
23 | CCCOc1ccc(C(F)(F)F)cc1NC(=O)CCc1c(C)noc1C | -0.872
24 | CCN(CC(=O)Nc1ccc(OC)c(OC)c1)CC(=O)Nc1ccccc1C(F)(F)F | 5.5
25 | CCOc1ccc(N2CCc3c(C)nc(SC)nc32)cc1 | -4.4
26 | CCc1nn(CC(=O)NCCCN(Cc2ccccc2)C(C)C)c(=O)c2cc3sccc3n12 | -12.1
27 | COc1cc2cc(CN(CCO)S(=O)(=O)c3ccccc3)c(=O)[nH]c2cc1OC | 7.64
28 | CN(C)c1nc(OCc2ccccc2)c2ncc(=O)[nH]c2n1 | 7.36
29 | O=C(/C=C/c1ccc(F)cc1)Nc1cccc(S(=O)(=O)Nc2cccc(C(F)(F)F)c2)c1 | 17.9
30 | Cc1cc(C)cc(C(=O)NCC(=O)OC(C)C(=O)N(C)c2ccccc2)c1 (stereo not shown) | 12.5
31 | COc1ccc(-c2cc(C(F)(F)F)c(C#N)c(=O)[nH]2)cc1 | 14.7
32 | Cc1ccc2c(c1)[C@H]1[C@H](CO2)[C@H](c2ccccc2)[C@]2(C)C(=O)N(Cc3ccc(Cl)cc3)CC(=O)N12 | 16.2
33 | Cc1ccc(C(=O)COC(=O)CCC(=O)Nc2cccc(Cl)c2)cc1[N+](=O)[O-] | 11.1
34 | O=S(=O)(N/N=C/c1ccc(F)cc1)c1ccccc1 | 8.45
35 | Cc1cc(N2CCCC2=O)cc(C)c1S(N)(=O)=O | 7.43
36 | COc1ccc(NC(=O)CC2C(=O)NCCN2C(=O)c2ccccc2)cc1 (stereo not shown) | 12.9
37 | CC1=C(C(=O)Nc2cccc(C(=O)NCc3ccccc3C)c2)SCCO1 | 13.4
38 | CCC(O)(CC)C(=O)NN(C(=O)CCl)c1ccccc1 | 15.9
39 | Cc1ccc(Cn2c(=N)c(C(=O)NCc3ccco3)cc3c(=O)n4ccccc4nc32)cc1 | -67.9
40 | CN(C)S(=O)(=O)c1cccc(NC(=O)c2sccc2-c2ccccc2)c1 | 4.26
41 | O=C(Nc1cccc(-n2cnnn2)c1)c1cccnc1 | 14.8
42 | COc1ccc(C(=O)c2c(-c3ccc(OC)cc3)oc3ccc(-c4ccc(OC)nc4)cc23)cc1 | 9.93
43 | CCN(CC)Cc1c[nH]c2c(C(=O)OC)cccc12 | 1.12
44 | COc1cccc(COc2ccc3c(C)cc(=O)oc3c2)c1 | 11.6

Row | SMILES | hERG current change (%, negative = inhibition) at 1uM [%]
45 | CC(C)CCN1CCN(Cc2c(F)cccc2Cl)CC1CCO (stereo not shown) | 7.52
46 | COC(=O)c1sccc1S(=O)(=O)NC(C)c1cnn(-c2ccc(OC)cc2)c1C (stereo not shown) | 13.1
47 | C/C(N)=C(/C#N)C(=O)COC(=O)c1cc(-c2ccc(Br)cc2)nc2ccccc12 | 8.69
48 | CCOC(=O)c1ccc(NC(=O)CCNS(=O)(=O)c2cc(Br)cnc2N)cc1 | 18.4
49 | Cc1ccc(S(=O)(=O)Oc2ccc(C3C4=C(CCCC4=O)OC4=C3C(=O)CCC4)cc2)cc1 | -4.96
50 | COc1cc(OC)c(OC)cc1CNc1cc(C)ccc1OC | 3.33
51 | O=[N+]([O-])c1cccc(/C=N/NC2=NCCCCC2)c1 | -70.9
52 | Cn1c(CN2CCN(C(=O)c3ccccc3Cl)CC2)nc2cc([N+](=O)[O-])ccc21 | -46.2
53 | O=C(NCc1cccnc1)c1ccc(CS(=O)(=O)c2ccc(Cl)cc2)o1 | -1.09
54 | Nc1cc(C(=O)O)ccc1N1CCCCCC1 | 9.85
55 | O=c1o[nH]c(-c2ccccc2)c1N=Nc1c(F)cccc1Cl | 10.6
56 | Cc1cc(NC(=O)CCCn2cnc([N+](=O)[O-])n2)no1 | 9.05
57 | CC1CCCN(Cc2ccc(OCc3ccccc3)cc2)C1 (stereo not shown) | -10.3
58 | Cc1ccc(S(=O)(=O)N(C(=O)c2ccncc2)c2ccc(OC(=O)c3ccncc3)c3ccccc23)c(C)c1 | -14.2
59 | Cc1ccc(C(=O)Nc2ccc(-n3ccnc3P(=O)([O-])c3ccccc3)cc2)cc1.[K+] | 15
60 | COc1cc2[nH]c(=S)n(Cc3ccc(F)cc3)c(=O)c2cc1OC | 13.9
61 | CCOC(=O)COc1cc2c3c(c(=O)oc2cc1C)CCCC3 | 10.1
62 | Cc1ccc(C)c(NC(=O)NNC(=O)CCc2ccccc2)c1 | 17.8
63 | CC(=O)O[C@H]1C(=O)[C@@]2(C)C([C@H](OC(=O)c3ccccc3)[C@]3(O)C[C@H](OC(=O)[C@H](O)[C@@H](NC(=O)c4ccccc4)c4ccccc4)C(C)=C1C3(C)C)[C@]1(OC(C)=O)CO[C@@H]1C[C@H]2O (stereo partly shown) | 14
64 | CCCc1nc2sc3c(c2c(=O)[nH]1)CCCC3 | 5.75
65 | CC1CCN(c2ccccc2NC(=S)NC(=O)c2ccco2)CC1 | 8.35
66 | CC1=NN(Cc2c(C)nn(Cc3ccccc3)c2C)C(C)(C)C1 | 13.4

Row | SMILES | hERG current change (%, negative = inhibition) at 1uM [%]
67 | Cc1ccc(CNC(=O)c2csc3c2CCCCC3)cc1 | 8.37
68 | CCOC(=O)C1CCCN(CCC(=O)Nc2c(C(=O)OC)[nH]c3cc(OC)ccc23)C1 (stereo not shown) | -38
69 | COc1ccc(CCNC(=O)c2cc3ccccc3oc2=O)cc1 | 23.1
70 | O=c1c2c(-c3cccs3)csc2ncn1-n1cccc1 | 12.7
71 | CCOc1cc(C=C(C#N)C#N)ccc1Oc1ccc([N+](=O)[O-])cn1 | 18
72 | Cc1cccc2c1CC(C)(C)N=C2C1=C(O)CCCC1=O | 4.53
73 | Cc1cccc(C(=O)NNC(=O)c2ccccc2-n2cccc2)c1 | 9.54
74 | CC(Nc1ccc2c(c1)OCCO2)C(=O)N1CCc2ccccc21 (stereo not shown) | 15.9
75 | COc1cc(C2C(C#N)=C(SC)NC3=C2C(=O)CCC3)ccc1O (stereo not shown) | 7.21
76 | O=C(c1c(Cl)nc2sccn12)N(C(=O)c1c(Cl)nc2sccn12)c1ccc(Cl)cn1 | 7.62
77 | Nc1c(-c2nn[nH]n2)cnn1-c1cc(Cl)cc(Cl)c1 | 14.4
78 | COc1cc(/C=N/n2cnnc2)ccc1OCc1ccc(C)cc1 | 9.82
79 | CSc1nc2cc(Cl)ccc2s1 | -1.02
80 | O=C(Nc1nc(-c2ccccc2)cs1)C1CCCCN1S(=O)(=O)c1ccc(Cl)cc1 (stereo not shown) | 18.5
81 | COc1ccc(Cc2nnc(CCc3ccccc3)s2)cc1 | 8.13
82 | C=CCNC(=S)Nc1cccc2[nH]ncc12 | -4.89
83 | COCCn1c(SCC(=O)c2c(N)n(C3CC3)c(=O)[nH]c2=O)nnc1-c1ccc(Cl)cc1 | 13.5
84 | CCCN(Cc1nnc(-c2cccs2)o1)C(=O)c1cccc(S(=O)(=O)N2CCOCC2)c1 | 4.17
85 | Nc1nonc1-n1nnc(C(=O)N/N=C/c2ccncc2)c1CSc1ccccc1 | 11
